# Assay results published in PMC4336329 (PLoS ONE, 2015).
# The whole screen tested about 310,000 compounds, of which about 14,000 (4.5%) showed an effect of 50% or more. The effect is printed as a negative number. This is one part of the list.
# Target: human ether-à-go-go-related gene (hERG) potassium channel (human, UniProt Q12809)
# Test: primary screen, population patch clamp on CHO cells stably expressing hERG
# 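Also: peak tail current of the secondary pulse compared with the same well before compound.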
# Sequence of human ether-à-go-go-related gene (hERG) potassium channel (Q12809 whole entry, looked up): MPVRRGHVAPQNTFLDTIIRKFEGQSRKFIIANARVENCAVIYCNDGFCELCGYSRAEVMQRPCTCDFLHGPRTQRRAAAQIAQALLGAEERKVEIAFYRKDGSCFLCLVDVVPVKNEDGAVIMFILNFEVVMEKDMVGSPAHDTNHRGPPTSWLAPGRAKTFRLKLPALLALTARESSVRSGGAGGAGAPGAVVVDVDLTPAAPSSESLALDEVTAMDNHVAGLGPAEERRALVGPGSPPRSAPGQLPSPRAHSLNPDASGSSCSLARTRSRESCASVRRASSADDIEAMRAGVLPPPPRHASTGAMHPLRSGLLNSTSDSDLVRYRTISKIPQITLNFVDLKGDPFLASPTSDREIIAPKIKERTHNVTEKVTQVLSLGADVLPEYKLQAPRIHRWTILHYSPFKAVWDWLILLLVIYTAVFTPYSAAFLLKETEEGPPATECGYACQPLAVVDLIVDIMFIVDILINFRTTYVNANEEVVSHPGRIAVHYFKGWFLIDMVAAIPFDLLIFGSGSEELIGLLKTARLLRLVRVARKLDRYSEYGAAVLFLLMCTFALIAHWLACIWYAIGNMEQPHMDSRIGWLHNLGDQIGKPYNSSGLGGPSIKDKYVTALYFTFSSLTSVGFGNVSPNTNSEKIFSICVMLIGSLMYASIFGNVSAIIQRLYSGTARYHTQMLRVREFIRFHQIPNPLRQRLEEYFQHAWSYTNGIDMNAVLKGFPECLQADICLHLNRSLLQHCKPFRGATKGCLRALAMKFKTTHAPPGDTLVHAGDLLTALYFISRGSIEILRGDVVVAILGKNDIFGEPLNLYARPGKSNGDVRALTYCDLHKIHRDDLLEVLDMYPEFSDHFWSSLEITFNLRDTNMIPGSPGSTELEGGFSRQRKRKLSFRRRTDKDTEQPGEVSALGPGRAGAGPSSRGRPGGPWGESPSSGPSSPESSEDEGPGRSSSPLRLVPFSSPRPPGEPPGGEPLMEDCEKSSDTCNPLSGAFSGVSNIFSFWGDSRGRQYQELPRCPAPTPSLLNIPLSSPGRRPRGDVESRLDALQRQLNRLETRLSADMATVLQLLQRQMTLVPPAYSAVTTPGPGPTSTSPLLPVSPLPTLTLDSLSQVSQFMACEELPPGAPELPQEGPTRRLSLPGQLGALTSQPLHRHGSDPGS
row,SMILES,"hERG current change (%, negative = inhibition) at 10uM [%]"
1,CC(C)=C[C@@H]1C[C@H](C)[C@H]2CC[C@H](C)c3c(O)c(O)c(C)c1c32,11.8
2,CC(=O)c1ccc([C@H]2C[C@@]34CN(C(=O)OC(C)(C)C)S(=O)(=O)[C@H]3C[C@H]2O4)cc1,6.69
3,CNc1nc2c(c(=O)n(C)c(=O)n2C)n1CCCc1ccccc1,12.7
4,O=C(Nc1ccc(N2CCOCC2)cc1)c1ccncc1,0.235
5,CCOc1ccccc1CNCCc1ccc2c(c1)OCO2.Cl,-32.8
6,OCCC1CN(Cc2cnc(-c3ccccc3)s2)CCN1CCc1ccccc1 (centres unmarked),-71.2
7,COC(=O)c1ccc(C2/C(=C(\O)c3ccc4c(c3)OCCO4)C(=O)C(=O)N2c2nnc(C)s2)cc1 (centres unmarked),9.19
8,Nc1ccccc1-c1nc2ccccc2c(=O)o1,15.7
9,Cc1ccc2[nH]c(=O)c(CN(CCCO)S(=O)(=O)c3cccc4nsnc34)cc2c1,-38.1
10,COc1ccc(OC)c(S(=O)(=O)Nc2c(NC3CCCCC3)c3ccccc3oc2=O)c1,-54.1
11,CSc1nc(N)cc(=O)[nH]1,16.7
12,Cc1ccc(CN2CCN(Cc3ccccc3-c3ccco3)CC2CCO)o1 (centres unmarked),-22.3
13,O=S(=O)(Cc1ccccc1Cl)NCCOc1ccccc1,5.09
14,C(=N\n1cnnc1)/c1nc2ccccc2[nH]1,5.6
15,O=[N+]([O-])c1cccc(-c2nc(NCc3ccccc3)c3ccccc3n2)c1,5.12
16,CSc1ncccc1C(=O)OCc1ccccc1F,-4.28
17,CC(C)C1N(C(N)=S)N=CC1(C)C (centres unmarked),10.7
18,Cc1cccc(NC(=O)NCCN2C(=O)C3C4C=CC(C4)C3C2=O)c1 (centres unmarked),0.914
19,CCOC(=O)C(=O)Nc1ccc(S(=O)(=O)Nc2nccs2)cc1,16.8
20,COc1ccccc1NC(=O)c1cc(S(=O)(=O)N2CCOCC2)ccc1Cl,-13.5
21,CC(=O)Nc1cccc(NC(=O)C2CCCN2C(=O)Nc2ccc(Cl)cc2)c1 (centres unmarked),-10.8
22,COC(=O)c1ccc(N2CCOCC2)c(NC(=O)c2ccc3c(c2)OCO3)c1,-1.7
23,COc1ccc(C(=O)/C(=C\N(C)C)n2nc(C)cc2C)cc1,6.61

row,SMILES,"hERG current change (%, negative = inhibition) at 10uM [%]"
1,CCc1cccc(C)c1NC(=O)CN1C(=O)c2ccccc2S1(=O)=O,-1.52
2,Cc1nnc(SCC(=O)NNC(=O)C(C)C)[nH]c1=O,3.86
3,COCCNC(=O)Cn1nc(-c2ccc(C)cc2)ccc1=O,8.83
4,O=C(NC1CCCC1)c1cccc(S(=O)(=O)N2CCOCC2)c1,3.11
5,Fc1ccc(/C=N/NC(=S)Nc2ccc(Cl)cc2Cl)cc1,2.42
6,O=C(CCC(=O)Nc1cccc2ccccc12)N/N=C/c1ccco1,-1.8
7,O=C(O)C(=O)O.O=[N+]([O-])c1ccc(CNC2CCCc3ccccc32)cc1 (centres unmarked),-51.7
8,Oc1ccccc1/C=N/n1c(-c2cccs2)n[nH]c1=S,4.74
9,O=S(=O)(NCc1cccnc1)c1ccccc1,10.8
10,O=C(Nn1c(-c2ccccc2)nc2ccccc2c1=O)c1ccco1,3.87
11,Cc1cs/c(=N\N=C\c2ccc(O)cc2)n1Cc1ccco1,-24.2
12,CN1CC2=CC(O)CC3Oc4c(O)ccc(c4[C@]23C)C1 (some centres unmarked),23.3
13,O=C1NC(=O)/C(=C/c2ccccn2)S1,16.1
14,COc1cc(CCC(=O)OCC(=O)Nc2c(C)cc(C)cc2C)cc(OC)c1OC,-1.98
15,CN(C)c1ccc(C(CNS(=O)(=O)c2ccc([N+](=O)[O-])cc2)N2CCCC2)cc1 (centres unmarked),-47.2
16,CCNC(=O)COC(=O)/C=C/c1ccccc1[N+](=O)[O-],7
17,CCc1ccccc1N(CC(=O)OC)S(C)(=O)=O,14.4
18,O=C(NCC(=O)N1CCOCC1)c1ccc(Br)o1,17.4
19,CC(=O)Nc1cccc(-c2nnc(SCc3ccccc3C#N)n2C)c1,9.96
20,COC(=O)[C@@H]1C[C@H]2CC[C@H](O)C[C@H]2N1Cc1ccc(N2CCN(C)CC2)cc1,33.2
21,CCCn1c(=O)c2sccc2n2c(CCCC(=O)NCc3cccnc3)nnc12,19.2
22,Cc1ccccc1N1CCN(Cc2nc(Cc3ccccc3F)no2)CC1,-3.53
23,C=CCSc1nc(C)c(CC(=O)OCC(C)C)c(=O)[nH]1,-7.18

row,SMILES,"hERG current change (%, negative = inhibition) at 10uM [%]"
1,CCC(C)C(NC(=O)c1ccccc1NC(=O)c1ccc(OC)cc1)C(=O)NCCCn1ccnc1 (centres unmarked),-1.96
2,Cc1cc(NC(=O)COc2ccc(F)c(Cl)c2)no1,17.7
3,CC1CC(C)CN(CCCNC(=O)CN2C(=O)c3cccnc3Oc3ccccc32)C1 (centres unmarked),-5.15
4,CC(C)CC(=O)Nc1ccc(N2CCOCC2)cc1,7.68
5,Oc1c(Cl)cc(Cl)cc1CNc1ccc(Br)cn1,4.21
6,O=C(NCCCN1CCOCC1)c1cc(-c2cccc(Br)c2)nc2ccccc12,-32.3
7,CN(C1(C)CCS(=O)(=O)C1)S(=O)(=O)c1ccc(F)cc1 (centres unmarked),11.6
8,CCNC(=O)COC(=O)CCC(=O)c1ccc(F)cc1,0.157
9,CC(=O)Nc1ccc(NC(=O)C(C)OC(=O)c2ccc(OCc3c(C)noc3C)cc2)cc1 (centres unmarked),-12.2
10,O=c1c2cc([N+](=O)[O-])cc([N+](=O)[O-])c2[nH]n1-c1ccccc1,17.2
11,CC(C)Sc1nsc2nc(=O)c(/C=C3\C=Nc4ccccc43)c(N)n12,11.7
12,CC1(C)CC(=O)C(C(c2ccco2)C2C(=O)CC(C)(C)CC2=O)C(=O)C1,-0.337
13,CC(=O)N1c2ccccc2NC(=O)C1(C)C,0.176
14,Cc1ccc(C(=O)NN=C2CCCCCC2)s1,3.68
15,COc1ccccc1-n1cnnc1SC(C)C(=O)Nc1cccc([N+](=O)[O-])c1 (centres unmarked),-8.19
16,COc1cc(C(=O)Nc2cccc(C)c2C)c(Br)c(OC)c1OC,0.146
17,COCCNC(=O)N1[C@H]2CC[C@@H]1C(C(=O)OC)=C(c1ccc(OC(F)(F)F)cc1)C2,-3.99
18,CN1/C(=C/c2cccc[n+]2C)Sc2ccccc21.[I-],-22.7
19,COc1ccc(C2C(C(=O)Nc3cccnc3)=C(C)Nc3nc(-c4cccs4)nn32)cc1OC (centres unmarked),7.87
20,CN1CCN(c2ccc(CNS(=O)(=O)Cc3ccc(Cl)cc3)cc2)CC1,4.63
21,CCOC(=O)C1CCN(C(=O)c2n[nH]c(=O)c3ccccc23)CC1,15.7
22,CCCCC(=O)Nc1cccc(C(=O)N/N=C/c2ccc(OC)cc2OC)c1,9.66
23,O=C(CNC(=S)N(Cc1ccc(F)cc1)C1CCCCC1)NCCN1CCOCC1,1.9

row,SMILES,"hERG current change (%, negative = inhibition) at 10uM [%]"
1,CC(C)(C)n1nc2c(c1NC(=O)c1ccccc1S(=O)(=O)C(F)F)CS(=O)(=O)C2,22.3
2,Cc1cc(C)n2nc(CC(=O)NNC(=O)COc3ccccc3)nc2n1,-2.89
3,CCOc1ccc(-c2c(C(=O)N/N=C/c3ccccc3)nnn2-c2nonc2N)cc1,10.5
4,OC(COc1ccc2ccccc2c1Br)Cn1cnc(-c2ccccc2)c1 (centres unmarked),-3.32
5,Cc1cc(C(=O)Cn2nc(C(=O)O)c3ccccc3c2=O)c(C)n1-c1cccc(C(F)(F)F)c1,-7.37
6,Cc1ccc2c(c1)C(=O)CC1(CCCC1)O2,9.09
7,Cc1c(C(=O)N2CCCC2)oc2c1-c1nn(CC(=O)NCCCN3CCCCC3C)cc1CC2 (centres unmarked),32.1
8,COC(=O)c1cc(C(=O)OC)cc(-n2c(C)cc(C=O)c2C)c1,-1.18
9,COc1ccccc1C(=O)Nc1cccc(NC(=O)c2ccccc2OC)n1,8.14
10,COc1ccc(C2SCCN2S(=O)(=O)c2ccc(F)cc2)cc1OC (centres unmarked),-4.78
11,Br.COc1ccc(/C(C)=N/Nc2nc(C)c(C(C)=O)s2)cc1,8.97
12,CCOC(=O)/C=C/C(=O)Nc1ccc(S(=O)(=O)N(C)c2ccccc2)cc1,-2.23
13,CC1CC(=S)Nc2ccccc2N1Cc1ccccc1 (centres unmarked),7.21
14,CCCCn1c(N)c(N(CCC(C)C)C(=O)CCN2C(=O)C3CC=CCC3C2=O)c(=O)[nH]c1=O (centres unmarked),7.98
15,CCN1CCN(C(c2cccs2)C(C)NC(=O)c2cccc(OC)c2)CC1 (centres unmarked),-4.05
16,CCCc1cc(C(=O)Nc2ccc(C(=O)c3ccccc3)cc2)n(C)n1,-16
17,CC(C)N(Cc1ccccc1)C(=O)c1cnc2n(c1=O)CCS2,1.24
18,Cc1cc(C)c(C#N)c(SCc2nnc(-c3ccccc3)o2)n1,-0.532
19,CCOC(=O)COn1c(=O)c(-c2cc3ccccc3o2)[n+]([O-])c2ccccc21,11.8
20,COc1ccc(Cl)cc1NC(=S)N1CCCCCC1,-3.5
